Out of some 150,000 compounds screened, about 540 (0.36%) showed an effect of 50% or more. Some of the results follow.
Tested on: Plasmodium falciparum
Experiment: Primary screen in NF54 nanoGlo assay, in single point, at 2uM, 72h; a lower Z score goes with more inhibition
Type: functional, Erythrocyte
Conditions: timepoint 72 hour

| SMILES | % Inhibition | Z score |
| --- | --- | --- |
| CC1CC(C)CC(c2noc(C(=O)c3cnn(C)c3)n2)C1 (stereo not given) | -5% | 0.55 |
| O=S(=O)(NC1CCCC1)C1CN(c2nnc(-c3ccccc3Cl)s2)C1 | -1% | 0.1 |
| CCn1c(CN2CCC[C@H](c3nc4ccccc4s3)C2)nc2cc(S(=O)(=O)N(C)C)ccc21 | -14% | 1.43 |
| CN1CCC(CC(=O)N[C@H](c2ccccn2)C(F)(F)F)CC1 | -12% | 1.96 |
| COC[C@@H]1[C@H](C(=O)N2CCN(c3ccccc3F)CC2)CCCN1Cc1ccccc1 | -6% | 0.73 |
| CC(C)c1nccn1C1CN(C(=O)c2ccoc2)C1 | 1% | -0.21 |
| CC(C)CNC(=O)c1cc2cc(NS(=O)(=O)c3ccc(C(C)(C)C)cc3)ccc2n1Cc1ccccc1 | -13% | 2.54 |
| Cc1ccc(S(=O)(=O)NC(=O)C2(c3ccc(F)cc3)CCC2)cc1C | 4% | -0.46 |
| COc1nccc(NC(=O)NCC(=O)OC(C)(C)C)n1 | -11% | 1.01 |
| C[C@H]1CN(C2CCN(S(=O)(=O)c3cnoc3)CC2)CCN1c1ncc(C(F)(F)F)cc1Cl | -1% | 0.12 |
| COCCCN(CCC(=O)NCCC(C)C)C(=O)c1ccoc1 | -11% | 1.1 |
| Cn1cc(Cl)c(C(=O)NCCc2cnn(-c3ccccc3)c2)n1 | -7% | 1 |
| C[C@H]1CCCN(c2ccc(Cl)cc2NC(=O)c2cncs2)C1 | -15% | 2.6 |
| O=C(NC1(CC(F)(F)F)CC1)c1cc2n(n1)CCCO2 | -7% | 0.88 |
| Cc1csc([C@@H](NC(=O)CC2CCN(C)CC2)C(F)(F)F)n1 | -11% | 1.55 |
| Cc1nn(C)c2nc(NCc3nnc4n3CCCCC4)sc12 | -16% | 2.39 |
| Cc1nc(-c2ccccc2NC(=O)NCCC2(O)CCC2)cs1 | -1% | 0.12 |
| Cc1c(S(=O)(=O)N2CCc3ccccc32)cc(-c2nc(-c3ccc(F)cc3)cs2)n1C | -14% | 1.66 |
| Cc1oncc1CN1CCN(C(=O)c2ccc3ccccc3n2)CC1 | -5% | 0.66 |
| O=C([C@H](O)c1ccc(Cl)cc1F)N1CCN(C2CC2)CC1 | -11% | 1.11 |
| Cc1ccsc1[C@H]1CCN(C(=O)c2ccc(C#N)nc2)C[C@@H]1O | -5% | 1.08 |
| COc1ccccc1CC(=O)NCc1cn(-c2ccsc2)nn1 | 9% | -1.33 |
| Cc1nc2ccccc2n1CCN[C@@H](C)c1ncc(Cl)n1C | 1% | -0.09 |
| Cc1occc1CN(C)S(=O)(=O)c1ccc(C#N)cc1 | 5% | -0.54 |
| CC1(C)CC[C@H](CS(=O)(=O)NCCc2cn[nH]c2)OC1 | 1% | -0.13 |
| N#Cc1ccc(NC2CC2)c(NS(=O)(=O)C[C@H]2CCCO2)c1 | -11% | 1.14 |
| Cc1cc(Br)ccc1CC(=O)NC(C)(CO)CO | -6% | 0.6 |
| C[C@@H](C(=O)Nc1c(F)cccc1NC1CC1)n1cccn1 | -10% | 1.95 |

| SMILES | % Inhibition | Z score |
| --- | --- | --- |
| COc1ncncc1NC(=O)[C@H](C)c1ccc(Cl)s1 | -4% | 0.66 |
| O=C1CCN(C(=O)[C@H]2CC(=O)N(c3ccc4c(c3)CCC4)C2)CCN1 | -11% | 1.36 |
| CC(c1nnc(-c2cccs2)o1)N1CCOC(c2nccs2)C1 (stereo not given) | -3% | 0.32 |
| COc1cc2c(=O)[nH]cnc2cc1OCc1ccccc1 | -15% | 1.71 |
| CC(C)n1nccc1C(=O)N1CCC2(CN(C)C2)C1 | 8% | -1.59 |
| CCC[C@H](NC(=O)c1n[nH]c(=O)[nH]1)c1nccn1C | -11% | 1.3 |
| Cc1ccsc1C(C)NCC1(O)CCOC1 (stereo not given) | -3% | 0.36 |
| O=C1OCC2(CCN(CC(c3ccccc3)c3ccccc3)CC2)O1 | -4% | 0.59 |
| O=S(=O)(NCCc1ccc(-c2ccsc2)s1)C1CC1 | -7% | 0.97 |
| CCc1ccc(CN[C@@H](C)C2=CCCCC2)nc1 | -1% | 0.1 |
| CCc1cc(C(=O)NCCN2CCc3ccccc3C2=O)oc1CC | -6% | 0.89 |
| COC(=O)c1c(NC(C)=O)c2cc(N[C@H]3CCc4ccccc4C3)cnc2n1CCC(C)C | 10% | -1.26 |
| Cc1nccn1C[C@H]1CCCN(Cc2cc3c(cc2Cl)OCO3)C1 | 12% | -1.63 |
| CC[C@H](C)CS(=O)(=O)Cc1cc(C)on1 | -12% | 1.11 |
| CC1(C)CN(C(=O)Cn2cc(Br)ccc2=O)CCO1 | -12% | 2.36 |
| Cn1ccn2ncc(C(=O)NCC3(COc4ccccc4)CC3)c12 | -1% | 0.15 |
| CN(Cc1cccs1)C(=O)c1cccc2cn[nH]c12 | -5% | 0.85 |
| O=C(NCC(=O)N1CCc2ccccc2C1)c1cccs1 | -8% | 0.69 |
| COCCn1ccc(NC(=O)C(=O)N(C)Cc2cccc(C)c2)n1 | -5% | 0.85 |
| CCCC[C@@H](c1cccnc1)N(C)Cc1cncn1C(C)C | -8% | 0.84 |
| Cc1ccc(CN2CCCn3nc(C(=O)NCCC(=O)N4CCN(C)CC4)cc3C2=O)cc1 | -14% | 1.92 |
| CCCCN(C)C(=NCC)NC1CCC1 | -16% | 2.84 |
| O=C1N(CCCc2ccccc2)CCC[C@@]1(O)CN1CCC2(CC1)OCCO2 | 11% | -1.44 |
| CCNC(=O)[C@@H]1C[C@@H](N)CN1Cc1cccc2ccccc12 | 16% | -2.24 |
| CCCOC1(c2noc([C@@H]3Cc4ccccc4N3C(C)=O)n2)CCCCC1 | 3% | -0.54 |
| CC1(c2cc(NC(=O)NC[C@]34C[C@H]3COC43CCC3)no2)CCCC1 | -2% | 0.27 |
| CS(=O)(=O)CCOCCNc1nc(C(F)(F)F)cs1 | -14% | 1.88 |
